Patent US20160075754A1 (PROTALIX, published 2016)

Molecular target: T1, Tumor necrosis factor-alpha (TNFα) (human, UniProt P01375 in part)
T1 construct: also called TNF alpha; Recombinant TNFα
Assay: sandwich ELISA: TNFα captured on an anti-TNFα coated plate, serial dilutions of BY2 cell lysate/supernatant, detection with goat anti human IgG Fc HRP

T1 sequence (P01375 77-233 limits assumed): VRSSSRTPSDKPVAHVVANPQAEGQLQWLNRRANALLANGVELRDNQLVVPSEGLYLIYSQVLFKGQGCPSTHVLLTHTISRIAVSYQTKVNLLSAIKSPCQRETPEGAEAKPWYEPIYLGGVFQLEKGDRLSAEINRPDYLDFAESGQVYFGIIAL

B1: plant recombinant human (prh) TNFR2:Fc (Fc fusion)
chain: LPAQVAFTPYAPEPGSTCRLREYYDQTAQMCCSKCSPGQHAKVFCTKTSDTVCDSCEDSTYTQLWNWVPECLSCGSRCSSDQVETQACTREQNRICTCRPGWYCALSKQEGCRLCAPLRKCRPGFGVARPGTETSDVVCKPCAPGTFSNTTSSTDICRPHQICNVVAIPGNASMDAVCTSTSPTRSMAPGAVHLPQPVSTRSQHTQPTPEPSTAPSTSFLLPMGPSPPAEGSTGD[human IgG1 Fc and a few adjoining residues cut from this listing]
notes: Expressed in N. tabacum BY2 cells; also called PRX-106; prh TNFR2:Fc-SEKDEL
binding result: binds
